These results are taken from PubChem BioAssay AID1508624 (National Center for Advancing Translational Sciences (NCATS), 2021).

In all, about 48,000 compounds went through this assay and about 120 (0.25%) were called active. About 4% were inconclusive and are not listed. Calls follow the shape of the dose curve; as a rule, active = well fitted activation curve with a large enough effect; inconclusive = small, poorly fitted or top-dose-only effect, or another doubt; inactive = no such curve, though single readings can be large or run the other way. This is one part of the list.

This assay in a line: Primary qHTS for Identification of Small Molecule Activators of Huntingtin-Antisense Promoter Activity. Also: nearly all actives have a fitted effect of over 55% in size. To be noted: HEK293 HTT-AS promoter firefly luciferase reporter (activity 0% = vehicle and -100% = no light), 24 h; series mostly up to 57.5 µM; activity change, positive = activation: at the top concentration. The method in brief:
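HEK293 luciferase promoter-reporter cells (2,500/well) plated 24 h, then compounds added at up to 57.5 uM final for 24 h at 37 °C. Firefly luminescence by Dual-Glo, normalized to vehicle (0%) and zero RLU (-100%).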
In general terms: In qHTS, concentration-response curves come from the screen itself.
In the case of `CCOCCCn1c(=N)c(C(=O)NC(C)c2ccccc2)cc2c(=O)n3cccc(C)c3nc21` (centres undefined), the “activity change, positive = activation” value is inactive: -30.3%. As to `Cc1cc(N2CCC(C(=O)Nc3ccccc3Cl)CC2)n2nc(C)c(-c3ccc(Cl)cc3)c2n1`, the “activity change, positive = activation” value was inactive: -11.7%.

In the case of `Fc1cccc(-c2nnn3c2nc(NCc2ccc4c(c2)OCO4)c2ccccc23)c1`, the “activity change, positive = activation” value is inactive: -1.35%. On to `Cc1ccc2occ(CC(=O)Nc3ccc(Cl)c(C(F)(F)F)c3)c2c1`, for which the “activity change, positive = activation” value was inactive: -84.4%. To `CCc1ccc(C(=O)NC2=NC(c3cc(OC)ccc3OC)CC(=O)N2)cc1` (centres undefined) belongs inactive: -5.06%; to `CC(=O)Nc1ccc(NC(=O)C(c2ccccc2)N2Cc3ccccc3C2=O)cc1` (centres undefined), inactive: -4.28%; to `Cc1ccc(-c2nn(C)c(=O)c3ccccc23)cc1S(=O)(=O)NCCCN(C)C`, inactive: -5.27%. Take `COC(=O)c1ccc(-c2nc(-c3ccc(OC)c(OC)c3)no2)cc1`: the “activity change, positive = activation” value is inactive: 15.9%. To `O=C(Nc1ccc(-c2nc3cc(NC(=O)c4ccc(Cl)cc4)ccc3o2)cc1)c1ccc(Cl)cc1` belongs inactive: 4.39%; to `COc1ccc(-c2cc(C(F)(F)F)n3nc(C(=O)Nc4sc5c(c4C(=O)OC(C)C)CCC(C)C5)cc3n2)cc1` (centres undefined), inactive: 1.63%; to `CCCN(CCC)C(=O)C1CCCN(S(=O)(=O)c2cc(Br)cc3c2N(C(=O)CC)CC3)C1` (centres undefined), inactive: -15.8%. In the case of `CCc1ccc(-n2nc(CO)c(C(=O)NCc3cccnc3)n2)cc1` it was inactive: -7.8%.

Consider `O=C(c1ccc2c(c1)N(Cc1ccc(Cl)cc1)C(=O)c1ccccc1S2(=O)=O)N1CCN(Cc2ccccc2)CC1`, for which the “activity change, positive = activation” value is inactive: -37%. To `Cc1cc(C)cc(NC(=O)CCc2c(C)nc3c(c2C)c(=O)n(C)c(=O)n3C)c1` belongs inactive: -3.12%; to `O=S(=O)(c1ccc(Br)cc1)c1nnn2c1nc(NCCc1ccccc1)c1sccc12`, inactive: -7.62%. In the case of `Cc1nc2ccc(S(=O)(=O)NC(C(=O)N3CCN(c4cccc(Cl)c4)CC3)C(C)C)cc2s1` (centres undefined), the “activity change, positive = activation” value is inactive: -17%.

Consider `COc1ccc(N2C(=O)CCSC23C(=O)N(Cc2ccc(F)cc2)c2ccccc23)cc1` (centres undefined), for which the “activity change, positive = activation” value was inactive: -37.3%. For `Cc1ccc(-c2onc(C)c2C)cc1S(=O)(=O)Nc1cccc(Cl)c1C`, the “activity change, positive = activation” value was inactive: -48.1%.

As to `CCOc1ccc(NC(=O)C2CCN(S(=O)(=O)c3c(C)noc3/C=C/c3ccco3)CC2)cc1`, the “activity change, positive = activation” value was inactive: -13.9%. For `CC(C)CC(=O)Nc1n[nH]c2c1CN(C(=O)C1CCN(C)CC1)C2(C)C`, the “activity change, positive = activation” value was inactive: -47.5%. With `CCOC(=O)c1ccccc1NC(=O)N1CC(C)Oc2ccc(C)cc21` (centres undefined), the “activity change, positive = activation” value was inactive: -34.5%.

As for `CCOc1ccc(NC(=O)CCn2cccn2)cc1`, the “activity change, positive = activation” value was inactive: 15.3%.

Turning to `CCCCOC(=O)/C(C#N)=C\c1ccc(-c2ccc(Cl)cc2)o1`, the “activity change, positive = activation” value is inactive: -1.25%. For `CC(=O)c1ccc(C(=O)N(Cc2cccnc2)c2nc3c(C)c(C)ccc3s2)cc1`, the “activity change, positive = activation” value is inactive: -31.4%. For `CCOC(=O)N1CCN(C(=O)c2ccc3c(c2)N(Cc2cccc(Cl)c2)C(=O)c2ccccc2S3=O)CC1` (centres undefined), the “activity change, positive = activation” value is inactive: -32.8%.

On to `Cc1ccc(-c2nc3ccccn3c2Nc2ccc3c(c2)OCCO3)o1`, for which the “activity change, positive = activation” value was inactive: 5.12%.

Take `O=C1CN(C(=O)COc2ccc(Cl)cc2)C(c2ccc(F)cc2)c2cc(Cl)ccc2N1` (centres undefined): the “activity change, positive = activation” value was inactive: -20.6%. As to `O=C(Nc1ccc(Br)cc1)C1CCN(c2ncccn2)CC1`, the “activity change, positive = activation” value was inactive: 1.12%. As for `COc1cc(NC(=O)C(=O)Nc2ccc3nc4n(c(=O)c3c2)CCCCC4)cc(OC)c1OC`, the “activity change, positive = activation” value was inactive: -16.6%. As to `CCOC(=O)Cn1c(=O)oc2cc(S(=O)(=O)NC(C)c3ccccc3)ccc21` (centres undefined), the “activity change, positive = activation” value is inactive: -16.4%. On to `COC(=O)c1nc2n(n1)C(c1cc(OC)ccc1OC)C=C(c1ccc(Br)cc1)N2` (centres undefined), for which the “activity change, positive = activation” value was inactive: -39.5%. `O=C(NCCS(=O)(=O)c1ccc(C(F)(F)F)cn1)c1ccc(Cl)cc1`: the “activity change, positive = activation” value is inactive: -5.5%. As for `O=C(c1ccccc1F)N1c2nc(-c3ccco3)nn2C2(CCCCC2)[C@@H]2CCCC[C@@H]21`, the “activity change, positive = activation” value was inactive: -37.6%. Take `COc1ccccc1CNC(=O)c1ccc(-n2c(C)cc3c2CCCC3)cc1`: the “activity change, positive = activation” value is inactive: 2.69%. In the case of `Cc1c(Cl)cccc1NS(=O)(=O)c1ccc(NS(=O)(=O)c2ccc3c(c2)OCCO3)cc1`, the “activity change, positive = activation” value was inactive: -33.9%. On to `COc1ccc(Cl)cc1NC(=O)c1cnc(N2CCCCC2)c2ccccc12`, for which the “activity change, positive = activation” value is inactive: -20.7%.

Take `CCOC(=O)c1c(C)[nH]c(C)c1S(=O)(=O)N1CCCC(C(=O)NCc2cccc(OC)c2)C1` (centres undefined): the “activity change, positive = activation” value was inactive: -3.91%. For the molecule `COc1cc(CNC(=O)CCCCC=CC(C)C)ccc1O`, the “activity change, positive = activation” value is inactive: -11.5%. For `Cc1cc(C(=O)N2CCN(c3cccc(C)c3C)CC2)c2c(C)nn(-c3ccccc3)c2n1`, the “activity change, positive = activation” value is inactive: -17.6%.

On to `CCOC(=O)c1sc(NC(=O)C2c3ccccc3Oc3ccccc32)c(C#N)c1C`, for which the “activity change, positive = activation” value was inactive: -35.2%. `COc1cccc(-c2ccc3c(N)c(C(=O)Nc4cc(C(F)(F)F)ccc4OC)sc3n2)c1`: the “activity change, positive = activation” value is inactive: 3.66%. To `Cc1ccc(C(=O)c2cn(CC(=O)NCc3ccccc3Cl)c3nc(C)ccc3c2=O)cc1` belongs inactive: -8.12%; to `CCCC(=O)NC(C)c1nc2ccccc2n1Cc1ccccc1` (centres undefined), inactive: -7.2%; to `COc1ccc(S(=O)(=O)N2CCCN(CC(=O)Nc3ccc(OC)cc3OC)CC2)cc1`, inactive: -11.5%.

Take `COc1ccccc1CNC(=O)CCC1N=C2c3ccccc3N=C(SCC(=O)Nc3ccc(N(C)C)cc3)N2C1=O` (centres undefined): the “activity change, positive = activation” value was inactive: 12.7%. In the case of `Cc1c(C(=O)N(C)C)sc2c1c(=O)n(-c1ccc(Cl)cc1)c(=O)n2Cc1ccccc1F`, the “activity change, positive = activation” value was inactive: -16%. Turning to `Cc1cccc(OCC(=O)Nc2cc(-c3ccccc3F)nn2-c2ccccc2)c1`, the “activity change, positive = activation” value is inactive: 6.92%. For the molecule `CC(C)NC(=O)N1CCN(S(=O)(=O)c2ccc3c(ccn3C)c2)CC1`, the “activity change, positive = activation” value is inactive: -28.9%. Turning to `Cc1ccc(C)c(NC(=O)CN(C)S(=O)(=O)c2ccc3c(c2)CCC(=O)N3)c1`, the “activity change, positive = activation” value was inactive: -5.51%. Take `CCOC(=O)c1cc(-c2ccc(OC)cc2)n(CCC(=O)NCc2ccc(OC)cc2)c1C`: the “activity change, positive = activation” value is inactive: -27.5%. Take `OCc1ccccc1O[C@@H]1O[C@H](CO)[C@H](O)[C@H](O)[C@H]1O`: the “activity change, positive = activation” value is inactive: -5.6%.

Regarding `CCCS(=O)(=O)c1nc(S(=O)(=O)c2ccc(C)cc2)c(N(C)Cc2ccccc2)s1`, the “activity change, positive = activation” value is inactive: -26.9%. As for `CCc1ccccc1-n1c(C)nc2cc(C(=O)NCCc3ccc(Cl)cc3)ccc21`, the “activity change, positive = activation” value is inactive: -30.3%. Consider `Cc1ccc(CNC(=O)C2CCN(S(=O)(=O)c3cn(C)cn3)CC2)cc1`, for which the “activity change, positive = activation” value is inactive: -10.2%. Take `O=C(NCCCc1nc2ccccc2n1Cc1ccc(Cl)cc1)C1CCCCC1`: the “activity change, positive = activation” value is inactive: -27.5%.

Regarding `Cc1ccc(-n2ncc(C(=O)NCCN3CCCC3)c2C2CCN(C(=O)OC(C)(C)C)CC2)cc1C`, the “activity change, positive = activation” value was inactive: -15.5%. With `COCCCNC(=O)CCc1c(C)nc2nc(-c3cc(OC)cc(OC)c3)nn2c1C`, the “activity change, positive = activation” value is inactive: -17.2%.

`CC(C)N(Cc1ccccc1)S(=O)(=O)c1ccc(-c2cc(C(F)(F)F)on2)s1`: the “activity change, positive = activation” value is inactive: -25.6%. To `CC(C)OCCCNC(=O)CN1C(=O)COc2ccc(S(=O)(=O)N3CCCCCC3)cc21` belongs inactive: -12%.
